# Laboratory results taken from paper PMC4336329 (PLoS ONE, 2015).
# About 2,200 (0.71%) of roughly 310,000 compounds showed an effect of 50% or more. Effects have a minus sign here. The list shows a part of the results.
# Molecular target: human ether-à-go-go-related gene (hERG) potassium channel (human, UniProt Q12809)
# Assay: primary screen, population patch clamp on CHO cells stably expressing hERG
# human ether-à-go-go-related gene (hERG) potassium channel, sequence (Q12809 whole entry, looked up): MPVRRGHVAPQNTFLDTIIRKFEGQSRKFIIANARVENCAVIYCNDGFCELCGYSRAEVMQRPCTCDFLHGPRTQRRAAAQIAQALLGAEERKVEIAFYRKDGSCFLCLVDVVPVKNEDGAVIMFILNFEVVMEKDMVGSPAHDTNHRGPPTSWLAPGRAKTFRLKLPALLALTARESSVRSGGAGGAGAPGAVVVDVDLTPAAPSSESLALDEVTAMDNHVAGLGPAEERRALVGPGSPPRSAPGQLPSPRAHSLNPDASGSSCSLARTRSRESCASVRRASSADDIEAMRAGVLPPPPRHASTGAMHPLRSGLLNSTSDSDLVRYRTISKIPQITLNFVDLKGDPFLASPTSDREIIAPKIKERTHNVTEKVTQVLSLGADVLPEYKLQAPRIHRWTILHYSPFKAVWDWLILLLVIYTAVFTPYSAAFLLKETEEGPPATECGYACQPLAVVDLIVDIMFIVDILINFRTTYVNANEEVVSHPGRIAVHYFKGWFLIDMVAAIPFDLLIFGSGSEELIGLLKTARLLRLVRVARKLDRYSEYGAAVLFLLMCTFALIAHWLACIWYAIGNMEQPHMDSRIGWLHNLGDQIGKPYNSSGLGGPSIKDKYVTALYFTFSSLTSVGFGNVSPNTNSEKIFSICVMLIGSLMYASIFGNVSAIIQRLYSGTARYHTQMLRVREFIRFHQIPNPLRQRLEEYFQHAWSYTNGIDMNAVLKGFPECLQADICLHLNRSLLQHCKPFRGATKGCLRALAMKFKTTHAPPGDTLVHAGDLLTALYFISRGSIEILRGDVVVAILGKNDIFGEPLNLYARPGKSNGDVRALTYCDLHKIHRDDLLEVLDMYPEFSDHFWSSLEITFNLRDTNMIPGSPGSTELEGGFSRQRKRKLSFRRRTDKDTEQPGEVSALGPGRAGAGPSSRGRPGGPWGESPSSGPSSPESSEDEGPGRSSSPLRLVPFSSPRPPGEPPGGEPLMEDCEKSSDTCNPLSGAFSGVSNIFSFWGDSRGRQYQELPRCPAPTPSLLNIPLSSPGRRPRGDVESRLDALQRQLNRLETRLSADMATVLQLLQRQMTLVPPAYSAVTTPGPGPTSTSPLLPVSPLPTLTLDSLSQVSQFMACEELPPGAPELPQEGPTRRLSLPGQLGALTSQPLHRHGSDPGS
row,SMILES,"hERG current change (%, negative = inhibition) at 1uM [%]"
1,O=C(Nc1ccc(Oc2ccc(NC(=O)c3ccco3)c(NC(=O)c3ccco3)c2)cc1)c1ccco1,8.51
2,C=CCOn1c(=O)c(-c2ccc(C)cc2)[n+]([O-])c2ccccc21,16.2
3,Nc1ccc(Br)cc1C(=O)c1ccccc1,20
4,Cl.N=c1n(CCCOc2ccc(F)cc2)c2ccccc2n1CC(N)=O,-4.09
5,N#C/C(=C\c1ccccc1)C(=O)OCC(=O)N1CCCC1,8.82
6,Cc1ccc2cc(C(c3nnnn3Cc3ccccc3)N3CCc4ccccc43)c(=O)[nH]c2c1 (stereo not shown),0.52
7,Cc1ccccc1C(=O)NC1CCS(=O)(=O)C1 (stereo not shown),11.4
8,O=C(c1ccc(CNc2c(N3CCCC3)c(=O)c2=O)cc1)N1CCc2ccccc2C1,-3.76
9,Cn1ccc(C(=O)N/N=C/c2ccccc2[N+](=O)[O-])n1,10.7
10,COc1cccc(-c2noc(C(C)n3nc(C)c([N+](=O)[O-])c3C)n2)c1 (stereo not shown),7.86
11,COC(=O)c1cnc2c(c(C)nn2C)c1OC,10.8
12,COc1ccc(S(=O)(=O)N2CCOCC2)cc1NS(=O)(=O)/C=C/c1ccccc1,10.8
13,CCOC(=O)Cc1csc(NC(=O)c2ccncc2)n1,6.06
14,CCN(CC(=O)Nc1ccc(NC(C)=O)cc1)C(=O)/C=C/c1cccs1,6.99
15,CCC(=O)N(Cc1cc(=O)[nH]c2ccccc12)C1CCCCC1,-0.812
16,Cc1ccccc1C(=O)NCC(=O)OC(C)C(=O)NC(C)CCc1ccccc1 (stereo not shown),12.5
17,CCCN(CCC)S(=O)(=O)c1ccc(NC(=O)c2cc(C(=O)OC)cc([N+](=O)[O-])c2)cc1,16.7
18,O=C(/C=C/c1ccco1)NC(=S)Nc1nc(-c2ccc(Cl)cc2)cs1,10.2
19,Cc1ccc(C)c(N(CC(=O)NC(C)C)C(=O)CCC(=O)Nc2ccccn2)c1,10.4
20,Cc1cc(C)n2nc(SCC(=O)NC3CCCCC3)nc2n1,11.3
21,Cc1nc2cc(C(=O)N3CCN(C)CC3)ccc2n1C,13.6
22,Cc1ccn2cc(C(=O)Nc3ccccc3N3CCOCC3)nc2c1,-4.14

row,SMILES,"hERG current change (%, negative = inhibition) at 1uM [%]"
1,COc1ccc(C)cc1Nc1n[n+](-c2ccccc2)c(-c2cc([N+](=O)[O-])cc(OC)c2O)s1.[Cl-],13
2,CCOc1ccccc1NC(=O)C(=O)NCCC1=CCCCC1,9.84
3,COc1ccc(Cl)cc1C(=O)CSc1nnnn1C,14.8
4,Cc1ccc(C(=O)NCC(=O)OCC(=O)Nc2ccc3[nH]c(=O)[nH]c3c2)cc1,6.2
5,CCOC(=O)c1cnc2c(-c3ccc(Cl)cc3)c(C)nn2c1N,19.5
6,Nc1ccc(N2CCCCC2)c2nonc12,3.14
7,CC(C)(C)c1nnc(N/N=C/c2ccc(Br)cc2)n(N)c1=O,1.62
8,COc1ccc(N2CCN(S(=O)(=O)CCNC(=O)c3cc(=O)c4ccccc4o3)CC2)cc1,9.6
9,CC(C(=O)O)N(C(=O)c1ccccc1)c1ccc(F)cc1 (stereo not shown),21.1
10,COc1cccc(NC(=S)NC2CC(C)(C)NC(C)(C)C2)c1,-3.54
11,C=CCN1C(=O)C2C3C=CC(C2C1=O)C1C2C(=O)N(CC=C)C(=O)C2C31 (stereo not shown),6.09
12,CNCC[C@H](Oc1cccc2ccccc12)c1cccs1.Cl,1.74
13,CCOP(=O)(OCC)C(NC(=O)c1ccc(Cl)cc1)=C(Cl)Cl,10.1
14,O=C(O)c1cccc(S(=O)(=O)Nc2ccccc2Cc2ccccc2)c1,12.8
15,COc1ccc(C2CC(c3ccccc3)=NN2C(=O)CCC(=O)O)cc1 (stereo not shown),10.8
16,Nn1c(Cc2cccc3ccccc23)nnc1SCc1c(F)cccc1Cl,4.2
17,Cc1occc1C(=O)N(C)Cc1nc(-c2ccc(Cl)cc2)no1,14.2
18,Cc1sc2ncn(CC(=O)NCCCC(=O)N3CCC(C)CC3)c(=O)c2c1C,12.7
19,Cc1ccc(OCCCCNC(C)c2ccccc2)c(C)c1 (stereo not shown),10.2
20,Cc1onc(-c2c(F)cccc2Cl)c1C(=O)O/N=C(\N)c1ccc([N+](=O)[O-])o1,8.68
21,Cc1nc2c([nH]c3ccccc32)c(=O)n1N,15.9
22,CCNC(=S)N/N=C1\C(=O)c2cccc3cccc1c23,13

row,SMILES,"hERG current change (%, negative = inhibition) at 1uM [%]"
1,Cc1ccc(OCCNC(=O)C(=O)NCc2ccco2)cc1,19.3
2,CC1(C)Cc2c(sc(NC(=O)c3ccc(S(=O)(=O)N4CCCCCC4)cc3)c2C(N)=O)C(C)(C)N1,12.8
3,CCNc1nc(NCC)n2c(SCC(=O)Nc3ccccc3C(F)(F)F)nnc2n1,-0.854
4,CCC(C)NC(=O)CCn1ccc2cc(S(=O)(=O)N3CCCC3)ccc21 (stereo not shown),13.4
5,CCOCCCNC(=O)C(NC(=O)Cc1cccs1)c1ccc(OC)cc1 (stereo not shown),10
6,CCOC(=O)C1CCN(Cc2ccc(OCc3ccccc3)c(OC)c2)CC1.O=C(O)C(=O)O,13.1
7,Cc1cc(Cl)nc(-c2ccccc2O)n1,9.23
8,CC(=O)c1ccc(NC(=O)C(C)Sc2nnnn2C)cc1 (stereo not shown),-4.63
9,C/C(=N\NC(=O)c1ccc(C(=O)N/N=C(\C)c2ccco2)o1)c1ccco1,3.1
10,O=C(N/N=C/c1cc(Br)c(O)c(Br)c1O)c1ccc2c(c1)OCCO2,8.39
11,CCc1nc2c3cnn(-c4cc(Cl)ccc4C)c3ncn2n1,13
12,CCOC(=O)C1CCCN(CCC(=O)Nc2ccccc2)C1.Cl (stereo not shown),8.12
13,CSc1nn2cc(CCN3CCOCC3)c(-c3ccc(F)cc3)nc2c1C#N,-0.221
14,CCc1ccc(CNC(=O)C2CCN(S(=O)(=O)N3CC(C)CC(C)C3)CC2)cc1 (stereo not shown),11.9
15,COc1ccc(C(=O)n2cnc3ccccc32)cc1Br,9.97
16,CCn1c(CCCOc2ccc(Cl)cc2Cl)nnc1SCC(=O)Nc1cccc(F)c1,22.4
17,COC(=O)CSc1nnc(CNC(=O)c2ccc(OC)c(OC)c2)n1C,6.68
18,CN1CCN(CC(=O)Nc2nc(-c3ccccc3)cs2)CC1,-4.75
19,Cn1c(=O)c2c(nc(/C=C/c3cccc(Cl)c3)n2C)n(C)c1=O,15.2
20,CCCNC(=O)c1csc(Nc2cccc3ccccc23)n1,6.46
21,CS(=O)(=O)N(CC(=O)N1CCCC1)c1ccc(Cl)c(Cl)c1,7.4
22,Cc1cc(C)n(CC(=O)N2c3ccccc3Sc3ccc(C(F)(F)F)cc32)n1,11.2

row,SMILES,"hERG current change (%, negative = inhibition) at 1uM [%]"
1,CC(C)(C)c1ccc(C2=CC(c3ccccc3)n3ncnc3N2)cc1 (stereo not shown),10.8
2,CC(C(=O)NCc1ccc(F)cc1)n1ccc2cc(S(=O)(=O)N3CCCC3)ccc21 (stereo not shown),11.4
3,CN(C(=O)COC(=O)c1n[nH]c(=O)c2ccccc12)c1ccccc1,0.565
4,Cc1cc(C)n(-c2nnc(C)n2/N=C/c2ccccc2O)n1,-4.6
5,Cc1nc(Sc2nnnn2-c2ccccc2)c(C#N)c(C)c1C,9.33
6,CCc1cc(=O)oc2cc(C)cc(OCC(C)=O)c12,11.3
7,CCN(CC)CCCNC(=O)c1cc(Nc2ccc(OC)cc2)nc2ccccc12,-8.47
8,Nc1c(Cl)ncnc1N/N=C/c1ccc2ccccc2n1,5.62
9,COc1ccc(Cl)cc1S(=O)(=O)N(C)CC(=O)NCc1ccccn1,11.8
10,Cn1c(=O)oc2cc(S(=O)(=O)NCCC(=O)N3CCc4ccccc4C3)ccc21,-1.84
11,COc1ccc([C@@H]2C[C@H]3CN(Cc4ccccc4OC)C(=O)[C@]34CCCN24)cc1C,-0.567
12,O=C(Cn1c(=O)oc2cc(S(=O)(=O)N3CCCCC3)ccc21)N1CCc2ccccc2C1,6.3
13,Cn1c(Cc2cccs2)nnc1SCC(=O)Nc1ccc(F)cc1F,8.91
14,COc1ccccc1NCc1nnc(SCC(=O)N/N=C/c2ccco2)n1-c1ccc(Cl)cc1Cl,11.8
15,COc1ccc(N2CCN(C(=O)c3ccc(S(=O)(=O)N4CCCC4)cc3)CC2)cc1,13.2
16,CN(C)S(=O)(=O)N1CCN(C(=O)c2ccccc2Cl)CC1,3.56
17,COc1ccccc1C(C(=O)NC1CCCCC1)N(C(=O)c1csnn1)C1CC1 (stereo not shown),4.88
18,O=C(c1ccccc1)n1c(=S)nc2ccccn21,10.3
19,CSc1ccc(/C=C/C(=O)OCC(=O)N(C)CCC#N)cc1,-2.52
20,CCS(=O)(=O)c1nc2ccccc2n1CC(=O)N1CCCCC1,15.3
21,CC(C)(C)N/N=C1\CC(c2ccccc2)Oc2ccccc21.Cl (stereo not shown),5.81
22,O=C1CCC(=O)N1c1ccc(NCc2ccccc2Cl)c([N+](=O)[O-])c1,3.68
